The campaign covered roughly 43,000 compounds. About 200 (0.47%) were called active. About 12% were inconclusive and are not listed. Calls follow the shape of the dose curve; as a rule, active = well fitted cell-killing curve with a large enough effect; inconclusive = small, poorly fitted or top-dose-only effect, or effect the other way; inactive = flat fitted curve, though single readings scatter. Some of the results follow.
Experiment: Cell viability qHTS assay in S16 Pmp22-F2sN cells; also: nearly all actives have a fitted effect of over 65% in size
Conditions: S16 Pmp22-F2sN Schwann cells viability, CellTiter-Glo, 24 h; series mostly up to 57.5 µM; activity change, negative = cytotoxicity: at the top concentration
Outline: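 Viability was measured by CellTiter-Glo luminescence (15 min, room temperature). This followed 24 h at 37 °C of compound exposure (23 nL pin transfer) in S16 Pmp22-F2sN Schwann cells, 500-1,000 per well.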
% is scaled to controls: 0 for no effect and ±100 for the full control effect.

| Compound | activity change, negative = cytotoxicity |
| --- | --- |
| Cc1cc(NC(=O)C2CCCN(S(=O)(=O)c3cccc4nsnc34)C2)ccc1Br (stereo unspecified) | inactive: 0.301% |
| O=C(Nc1cc(Cl)cc(Cl)c1)c1ccc(F)c(S(=O)(=O)N2CCN(c3ccccc3F)CC2)c1 | inactive: -17.1% |
| CCOc1ccc(NC(=O)N2CCC(N3CCCCC3)CC2)cc1 | inactive: 15.9% |
| COc1ccc(-n2c(=O)c3ccc(C(=O)NCc4ccc(C)cc4)cc3n(Cc3ccc(Cl)cc3)c2=O)cc1 | inactive: 9.77% |
| COCCn1c(C)cc(O)c(C(c2ccc(F)cc2)N2CCC(C)CC2)c1=O (stereo unspecified) | inactive: -2.89% |
| Cc1cccc(CSc2ncccc2C(=O)O)c1 | inactive: 0.558% |
| CCOc1ccccc1NC(=O)Cn1c(=O)n(C(C)C)c(=O)c2oc3ccccc3c21 | inactive: -1.35% |
| COc1cccc(NC(=O)Cn2c(=O)n(-c3ccccc3)c(=O)c3c2c2cc(OC)ccc2n3C)c1 | inactive: 3.29% |
| Cc1ccc(N(CC(=O)Nc2ccc(C)c(Cl)c2)S(=O)(=O)c2cccs2)cc1 | inactive: 1.54% |
| CC(=O)c1sc2c(c1C)c(=O)n(-c1ccc(Cl)cc1)c(=O)n2Cc1cc(=O)n2cc(Cl)ccc2n1 | inactive: -13.1% |
| Cc1nn(C(=O)c2ccc(Cl)cc2)c(C)c1Sc1ccc(Cl)cc1 | inactive: 0.469% |
| CCCCOc1ccc(OC(=O)c2sc3ncn(Cc4cccc(F)c4)c(=O)c3c2C)cc1 | inactive: 1.74% |
| COc1cc2nc(SCc3ccc(Cl)cc3)n3nc(CCn4nc(C)cc4C)nc3c2cc1OC | inactive: -2.61% |
| CCCSc1nc2sc3c(c2c(=O)n1-c1ccccc1)CCC(C)C3 (stereo unspecified) | inactive: -2.21% |
| COc1ccc(OC)c(NC(=O)CCn2cnnn2)c1 | inactive: -0.0052% |
| COc1ccc(CCNC(=O)c2cc(-c3ccc(C)cc3)nc3n[nH]c(-c4ccccc4)c23)cc1OC | inactive: -9.14% |
| COc1ccc(CNC(=O)c2cc3c(=O)[nH]c4ccc(C)cc4c3s2)c(OC)c1 | inactive: 19.7% |
| COc1ccc(-c2oc3ncn4nc(-c5cccc(C)c5)nc4c3c2-c2ccc(OC)cc2)cc1 | inactive: 3.48% |
| COc1cc(C(=O)Nc2nnc(S(=O)(=O)N(C)c3ccccc3)s2)cc(OC)c1OC | inactive: -1.18% |
| Cc1ccc(CN2C(=O)c3ccccc3Sc3ccc(C(=O)NC4CCCCC4)cc32)cc1 | inactive: -0.15% |
| Cc1ccc(-c2nc3n(n2)C(c2ccccc2C)C=C(c2ccc(Cl)cc2)N3)cc1 (stereo unspecified) | inactive: -3.79% |

| Compound | activity change, negative = cytotoxicity |
| --- | --- |
| COc1ccccc1CNC(=O)CS(=O)(=O)c1cccc2nsnc12 | inactive: 1.47% |
| COc1ccc(CNC(=O)C2CCN(c3nc4ccccc4[nH]3)CC2)c(OC)c1 | inactive: -1.92% |
| COc1cc(CN(C(=O)COc2ccc(Br)cc2)c2ccccn2)cc(OC)c1OC | inactive: -13.3% |
| Cc1ccn2c(Nc3ccc(F)cc3)c(-c3ccc(C)o3)nc2c1 | inactive: -14.6% |
| O=C(CSc1ncc(CO)n1Cc1ccccc1)Nc1nc2ccccc2s1 | inactive: -28.5% |
| O=C(NC1CC(=O)N(c2ccc(F)cc2)C1)c1cccs1 (stereo unspecified) | inactive: -5.57% |
| CCc1ccccc1NC(=O)C1(S(=O)(=O)c2ccc(Cl)cc2)CC1 | inactive: 7.42% |
| COc1ccc(-c2nsc(NC(=O)COc3ccc(C)c(C)c3)n2)cc1 | inactive: 3.35% |
| Cc1cc(C)cc(NC(=O)CN2C(=O)CSc3ccc(S(=O)(=O)N(C)C)cc32)c1 | inactive: 23.8% |
| Cc1ccc(OCC(=O)Nc2ccc(Cl)c(-c3nc4ncccc4o3)c2)cc1C | inactive: 18.5% |
| CCOC(=O)c1c(C)oc2ncnc(Nc3ccc(F)cc3Cl)c12 | inactive: 7.83% |
| CN(C)S(=O)(=O)c1ccc2c(c1)N(CC(=O)NCc1ccccc1)C(=O)C1CCCCN21 (stereo unspecified) | inactive: 7.11% |
| Cc1ccccc1CCNC(=O)c1ccc2c(c1)c(C)c(C)n2C | inactive: 9.33% |
| COc1ccccc1CNC(=O)CCn1c(=O)c2ccccc2n(CC(=O)Nc2ccc(C)cc2)c1=O | inactive: 6.74% |
| Cc1cccc(CNC(=O)C2CCCN(S(=O)(=O)c3cn(C)cn3)C2)c1 (stereo unspecified) | inactive: -5.01% |
| Cn1nnnc1SCCCNCc1ccc(-c2ccc(Br)cc2)o1 | inactive: -28% |
| CCCCCn1c(=O)[nH]c2cc(C(=O)Nc3cc(OC)cc(OC)c3)ccc2c1=O | inactive: 3.43% |
| Cc1ccc2oc(=O)c3cc(C(=O)N4CCN(c5ccccc5)CC4)sc3c2c1 | inactive: -1.66% |
| Cc1nn(S(=O)(=O)c2ccc(C(C)C)cc2)c(C)c1S(=O)(=O)N1CCCCCC1 | inactive: -12.5% |
| Cc1ccc(NC(=O)CSc2nc3ccccc3nc2Cc2ccccc2F)cc1F | inactive: 14.2% |
| CCCCCNC(=O)c1c[nH]c2ccc(S(=O)(=O)N3CCC(C)CC3)cc2c1=O | inactive: -2.83% |

| Compound | activity change, negative = cytotoxicity |
| --- | --- |
| CCC1CN(C(=O)NCc2ccc(C)cc2)c2cc(C)ccc2O1 (stereo unspecified) | inactive: -0.467% |
| COc1ccccc1CNc1nc2nc(C)c(Cl)c(C)n2n1 | inactive: 0.0613% |
| COC(=O)c1c(NC(=O)c2cccc(OC)c2)sc2c1CCC(C(C)(C)C)C2 (stereo unspecified) | inactive: 4.18% |
| Cc1nc2c(c(C)c1CCC(=O)Nc1cccc(C(F)(F)F)c1)c(=O)n(C)c(=O)n2C | inactive: 7.18% |
| Cc1nnc(NC(=O)CSc2nccn2-c2cccc(Cl)c2)s1 | inactive: 1.45% |
| CC1CCCN(S(=O)(=O)c2cc3c(cc2Cl)NC(=O)CO3)C1 (stereo unspecified) | inactive: 1.76% |
| COc1ccc(C(=O)Nc2ccccc2C(=O)OCc2cc(=O)n3c4c(sc3n2)CCCC4)cc1 | inactive: -28% |
| O=C(CCC(=O)N1CC2CCCN2c2ccccc21)NCc1ccccc1Cl (stereo unspecified) | inactive: -14.5% |
| COc1ccc(-c2cc(=O)n3[nH]cnc3n2)cc1 | inactive: 0.691% |
| COc1ccc(N2CCN(c3ccc(-c4nc(-c5ccccc5C)no4)cc3[N+](=O)[O-])CC2)cc1 | inactive: 13.1% |
| Cc1cccc(-c2nc(SCC(=O)Nc3cc(C)on3)c3c(=O)n(C)c(=O)n(C)c3n2)c1 | inactive: -3.39% |
| COCCCNC(=O)c1ccc2c(c1)N=C(C)c1c(C)ccc(C)c1S2 | inactive: 11.3% |
| Cc1ccc(NC(=O)C(Cc2ccccc2)NS(=O)(=O)c2ccc3c(c2)oc(=O)n3C)c(Cl)c1 (stereo unspecified) | inactive: -15.1% |
| COc1ccccc1NC(=O)c1cc(S(=O)(=O)N(C)C2CCCCC2)ccc1F | inactive: -0.386% |
| CC1=C(C(=O)Nc2ccccc2C)C(c2cccnc2)n2nc(SCc3ccccc3)nc2N1 (stereo unspecified) | inactive: 0.845% |
| CCOC(=O)N1CCc2c(sc3c2c(=O)n(CCc2ccccc2)c(=O)n3Cc2cc(C)ccc2C)C1 | inactive: 10.3% |
| COCCNC(=O)Cn1cc(S(=O)(=O)Cc2ccccc2Cl)c2ccccc21 | inactive: 6.15% |
| Cc1ccc(-c2nnc(Nc3ccc(Br)cc3)c3ccccc23)cc1S(=O)(=O)N1CCOCC1 | inactive: 15% |
| COc1ccc(-n2c(=O)c3sc4ccccc4c3n(CC(=O)Nc3cccc(C)c3)c2=O)cc1 | inactive: 2.2% |

Reference: PubChem BioAssay AID1508642 (National Center for Advancing Translational Sciences (NCATS), 2021)
